# Reference: US11618753B2 (priority 2018, dated 2023)
# System: MLKL phosphorylation, HT29-L23 human colorectal adenocarcinoma cells
# Assay: cells
# Settings: read-out: pMLKL HCS Cell Assay (IC50, uM)
row,Structure (SMILES),IC50 [µM]
1,"COc1ncc(-c2cc(C(=O)N3CC(F)(F)C3)c3c(N)ncnn23)cc1C(=O)N[C@@H]1CN(C(=O)C2CC(F)(F)C2)C[C@@H]1F [Example 1350, 5-[4-amino-5-(3,3-difluoroazetidine-1-carbonyl)pyrrolo[2,1-f][1,2,4]triazin-7-yl]-N-[(3R,4S)-1-(3,3-difluorocyclobutanecarbonyl)-4-fluoropyrrolidin-3-yl]-2-methoxypyridine-3-carboxamide]",0.22
2,"COc1ncc(-c2cc(C(F)(F)F)c3c(N)ncnn23)cc1C(=O)N[C@H](C)c1cc(C(F)(F)F)ccc1F [Example 1351, 5-[4-amino-5-(trifluoromethyl)pyrrolo[2,1-f][1,2,4]triazin-7-yl]-N-[(1R)-1-[2-fluoro-5-(trifluoromethyl)phenyl]ethyl]-2-methoxypyridine-3-carboxamide]",0.029
3,"COc1ncc(-c2cc(C(F)(F)F)c3c(N)ncnn23)cc1C(=O)NCc1ccccc1Oc1ccccc1 [Example 1352, 5-[4-amino-5-(trifluoromethyl)pyrrolo[2,1-f][1,2,4]triazin-7-yl]-2-methoxy-N-[(2-phenoxyphenyl)methyl]pyridine-3-carboxamide]",0.073
4,"COc1ncc(-c2cc(C(F)(F)F)c3c(N)ncnn23)cc1C(=O)N[C@@H]1CN(C2CC(C)c3ccccc32)C[C@@H]1F (stereo partly drawn) [Example 1353, 5-(4-Amino-5-(trifluoromethyl)pyrrolo[2,1-f][1,2,4]triazin-7-yl)-N-((3R,4S)-4-fluoro-1-(3-methyl-2,3-dihydro-1H-inden-1-yl)pyrrolidin-3-yl)-2-methoxynicotinamide]",0.288
5,"COc1ncc(-c2cc(C(F)(F)F)c3c(N)ncnn23)cc1C(=O)N[C@@H]1CN(C2CCCC2C)C[C@@H]1F (stereo partly drawn) [Example 1363, 5-[4-amino-5-(trifluoromethyl)-pyrrolo[2,1-f][1,2,4]triazin-7-yl]-N-[(3R,4S)-4-fluoro-1-(2-methylcyclopentyl)-pyrrolidin-3-yl]-2-methoxy-pyridine-3-carboxamide]",0.026
6,"COc1ncc(-c2cc(C(F)(F)F)c3c(N)ncnn23)cc1C(=O)N[C@@H]1CN(C2CCc3ncccc32)C[C@@H]1F (stereo partly drawn) [Example 1364, 5-[4-amino-5-(trifluoromethyl)-pyrrolo[2,1-f][1,2,4]triazin-7-yl]-N-[(3R,4S)-1-{5H,6H, 7H-cyclopenta[b]pyridin-5-yl}-4-fluoropyrrolidin-3-yl]-2-methoxypyridine-3-carboxamide]",0.045
7,"COc1ncc(-c2cc(C(F)(F)F)c3c(N)ncnn23)cc1C(=O)NC1CN(C2CCCC2(C)C)C[C@@H]1F (stereo partly drawn) [Example 1365, 5-[4-amino-5-(trifluoromethyl)-pyrrolo[2,1-f][1,2,4]triazin-7-yl]-N-[(3R,4S)-1-(2,2-dimethylcyclopentyl)-4-fluoropyrrolidin-3-yl]-2-methoxypyridine-3-carbox-amide]",0.253
8,"COc1ncc(-c2cc(C(F)(F)F)c3c(N)ncnn23)cc1C(=O)NC1CN(C2c3ccccc3CC2C)C[C@@H]1F (stereo partly drawn) [Example 1367, 5-[4-amino-5-(trifluoromethyl)-pyrrolo[2,1-f][1,2,4]triazin-7-yl]-N-[(3R,4S)-4-fluoro-1-(2-methyl-2,3-dihydro-1H-inden-1-yl)pyrrolidin-3-yl]-2-methoxypyridine-3-carbox-amide]",0.064
9,"COc1ncc(-c2cc(C(F)(F)F)c3c(N)ncnn23)cc1C(=O)NC1CN(C2CCc3ccc(F)cc32)C[C@@H]1F (stereo partly drawn) [Example 1368, 5-[4-amino-5-(trifluoromethyl)-pyrrolo[2,1-f][1,2,4]triazin-7-yl]-N-[(3R,4S)-4-fluoro-1-(6-fluoro-2,3-dihydro-1H-inden-1-yl)pyrrolidin-3-yl]-2-methoxypyridine-3-carbox-amide]",0.026
10,"COC(=O)C1CCCC1N1CC(NC(=O)c2cc(-c3cc(C(F)(F)F)c4c(N)ncnn34)cnc2OC)[C@@H](F)C1 (stereo partly drawn) [Example 1371, methyl 2-[(3R,4S)-3-{5-[4-amino-5-(trifluoromethyl)-pyrrolo[2,1-f][1,2,4]triazin-7-yl]-2-methoxypyridine-3-amido}-4-fluoropyrrolidin-1-yl]cyclopentane-1-carboxy-late]",0.255
11,"COc1ncc(-c2cc(C(F)(F)F)c3c(N)ncnn23)cc1C(=O)N[C@@H]1CN(Cc2cccc(=O)[nH]2)C[C@@H]1F [Example 1380, 5-[4-amino-5-(trifluoromethyl)-pyrrolo[2,1-f][1,2,4]triazin-7-yl]-N-[(3R,4S)-4-fluoro-1-[(6-oxo-1,6-dihydropyridin-2-yl)methyl]pyrrolidin-3-yl]-2-methoxypyridine-3-carbox-amide]",0.242
12,COc1ncc(-c2cc(C(F)(F)F)c3c(N)ncnn23)cc1C(=O)NC1CN(C(C)C2CCC(F)(F)C2)C[C@@H]1F (stereo partly shown) [Example 1382],0.026
13,"COc1ncc(-c2cc(C(F)(F)F)c3c(N)ncnn23)cc1C(=O)NC1CN(C(C)CC(O)C(F)(F)F)C[C@@H]1F (stereo partly drawn) [Example 1386, 5-[4-amino-5-(trifluoromethyl)-pyrrolo[2,1-f][1,2,4]triazin-7-yl]-N-[(3R,4S)-4-fluoro-1-(5,5,5-trifluoro-4-hydroxy-pentan-2-yl)pyrrolidin-3-yl]-2-methoxypyridine-3-carbox-amide]",0.05
14,"COc1ncc(-c2cc(C(F)(F)F)c3c(N)ncnn23)cc1C(=O)NC1CN(C(C)c2ccnc(F)c2F)C[C@@H]1F (stereo partly drawn) [Example 1387, 5-[4-amino-5-(trifluoromethyl)-pyrrolo[2,1-f][1,2,4]triazin-7-yl]-N-[(3R,4S)-1-[1-(2,3-difluoropyridin-4-yl)ethyl]-4-fluoropyrrolidin-3-yl]-2-methoxypyridine-3-carbox-amide]",0.004
15,"COc1ncc(-c2cc(C(F)(F)F)c3c(N)ncnn23)cc1C(=O)NC1CN(C(C)c2cc(F)nc(F)c2)C[C@@H]1F (stereo partly drawn) [Example 1388, 5-[4-amino-5-(trifluoromethyl)-pyrrolo[2,1-f][1,2,4]triazin-7-yl]-N-[(3R,4S)-1-[1-(2,6-difluoropyridin-4-yl)ethyl]-4-fluoropyrrolidin-3-yl]-2-methoxypyridine-3-carbox-amide]",0.0049
16,"COc1ncc(-c2cc(C(F)(F)F)c3c(N)ncnn23)cc1C(=O)NC1CN(C(C)c2c(F)cc(F)cc2F)C[C@@H]1F (stereo partly drawn) [Example 1390, 5-[4-amino-5-(trifluoromethyl)-pyrrolo[2,1-f][1,2,4]triazin-7-yl]-N-[(3R,4S)-4-fluoro-1-[1-(2,4,6-trifluorophenyl)-ethyl]pyrrolidin-3-yl]-2-methoxypyridine-3-carbox-amide]",0.013
17,"COc1ncc(-c2cc(C(F)(F)F)c3c(N)ncnn23)cc1C(=O)NC1CN(C(C)c2ccc(C(F)(F)F)cc2)C[C@@H]1F (stereo partly drawn) [Example 1391, 5-[4-amino-5-(trifluoromethyl)-pyrrolo[2,1-f][1,2,4]triazin-7-yl]-N-[(3R,4S)-4-fluoro-1-{1-[4-(trifluoromethyl)phenyl]-ethyl}pyrrolidin-3-yl]-2-methoxypyridine-3-carbox-amide]",0.372
18,"COc1ncc(-c2cc(C(F)(F)F)c3c(N)ncnn23)cc1C(=O)N[C@@H]1CN(C(C)c2ccccc2O)C[C@@H]1F (stereo partly drawn) [Example 1392, 5-[4-amino-5-(trifluoromethyl)-pyrrolo[2,1-f][1,2,4]triazin-7-yl]-N-[(3R,4S)-4-fluoro-1-[1-(2-hydroxyphenyl)ethyl]-pyrrolidin-3-yl]-2-methoxy-pyridine-3-carboxamide]",0.0033
19,"COc1ncc(-c2cc(C(F)(F)F)c3c(N)ncnn23)cc1C(=O)N[C@@H]1CN(C(C)c2cc(F)cc(F)c2O)C[C@@H]1F (stereo partly drawn) [Example 1393, 5-[4-amino-5-(trifluoromethyl)-pyrrolo[2,1-f][1,2,4]triazin-7-yl]-N-[(3R,4S)-1-[1-(3,5-difluoro-2-hydroxyphenyl)-ethyl]-4-fluoropyrrolidin-3-yl]-2-methoxypyridine-3-carboxamide]",0.018
20,"COc1ncc(-c2cc(C(F)(F)F)c3c(N)ncnn23)cc1C(=O)NC1CN(C(C)c2cccc(OC(F)(F)F)c2)C[C@@H]1F (stereo partly drawn) [Example 1394, 5-[4-amino-5-(trifluoromethyl)-pyrrolo[2,1-f][1,2,4]triazin-7-yl]-N-[(3R,4S)-4-fluoro-1-{1-[3-(trifluoromethoxy)phenyl]-ethyl}pyrrolidin-3-yl]-2-methoxypyridine-3-carbox-amide]",0.3
21,"COc1ncc(-c2cc(C(F)(F)F)c3c(N)ncnn23)cc1C(=O)NC1CN(C(C)c2cnc(C)nc2C)C[C@@H]1F (stereo partly drawn) [Example 1396, 5-[4-amino-5-(trifluoromethyl)-pyrrolo[2,1-f][1,2,4]triazin-7-yl]-N-[(3R,4S)-1-[1-(2,4-dimethylpyrimidin-5-yl)ethyl]-4-fluoropyrrolidin-3-yl]-2-methoxypyridine-3-carbox-amide]",0.033
22,"COc1ncc(-c2cc(C(F)(F)F)c3c(N)ncnn23)cc1C(=O)N[C@@H]1CN(C(C)c2sc(Cl)nc2C)C[C@@H]1F (stereo partly drawn) [Example 1397, 5-[4-amino-5-(trifluoromethyl)-pyrrolo[2,1-f][1,2,4]triazin-7-yl]-N-[(3R,4S)-1-[1-(2-chloro-4-methyl-1,3-thiazol-5-yl)-ethyl]-4-fluoropyrrolidin-3-yl]-2-methoxypyridine-3-carboxamide]",0.028
23,"COc1ncc(-c2cc(C(F)(F)F)c3c(N)ncnn23)cc1C(=O)N[C@@H]1CN(C(C)c2nc(Br)sc2Br)C[C@@H]1F (stereo partly drawn) [Example 1398, 5-[4-amino-5-(trifluoromethyl)-pyrrolo[2,1-f][1,2,4]triazin-7-yl]-N-[(3R,4S)-1-[1-(2,5-dibromo-1,3-thiazol-4-yl)-ethyl]-4-fluoropyrrolidin-3-yl]-2-methoxypyridine-3-carboxamide]",0.028
24,"COc1ncc(-c2cc(C(F)(F)F)c3c(N)ncnn23)cc1C(=O)NC1CN(C(C)c2nc(Cl)cs2)C[C@@H]1F (stereo partly drawn) [Example 1399, 5-[4-amino-5-(trifluoromethyl)-pyrrolo[2,1-f][1,2,4]triazin-7-yl]-N-[(3R,4S)-1-[1-(4-chloro-1,3-thiazol-2-yl)ethyl]-4-fluoropyrrolidin-3-yl]-2-methoxypyridine-3-carbox-amide]",0.0031
25,"COc1ncc(-c2cc(C(F)(F)F)c3c(N)ncnn23)cc1C(=O)NC1CN(C(C)c2cnc(C)s2)C[C@@H]1F (stereo partly drawn) [Example 1400, 5-[4-amino-5-(trifluoromethyl)-pyrrolo[2,1-f][1,2,4]triazin-7-yl]-N-[(3R,4S)-4-fluoro-1-[1-(2-methyl-1,3-thiazol-5-yl)-ethyl]pyrrolidin-3-yl]-2-methoxypyridine-3-carbox-amide]",0.0041
